Source: the supplement of paper PMC11125491
± gives the standard deviation of the averaged measurements. Growth of baker's yeast expressing single-residue variants of Pneumocystis jirovecii dihydrofolate reductase in 8.8 or 44 µM methotrexate (about 75% and 90% inhibition of the wild type). Selection coefficient per generation; 0 = like wild type, above 0 = less sensitive, below 0 = more sensitive or loss of function. No active / inactive call per row; the paper calls resistant above 0.220 (8.8 µM) or 0.243 (44 µM) together with a significance test. At 44 µM about 15% of codons end with one read or none, so the lowest values are floors (replicate rank correlation 0.74; 0.94 at 8.8 µM).

B1: UniProt A0EPZ9; numbered along this chain (parent)
chain: MDWQKSLTLIVALTLSRGIGLKNDLPWKLKSDMMFFSRVTSGLLVTRSTGQMNVVLMGRKTWESLPAHSRPLKNRINVVISRQEVLDLGGGAYHARSLDDALALLSQIYDSTSKIQLNRVFVIGGGELCKAAMEHSRLNRIIATVIHNEVDCDVFFPIDFRSSQSCLPWRKQDHSVLEAWVGSKVPQGKINENGFIYEFEMWIRDI

Variants of: B1
Assay: selection coefficient against synonymous wild-type codons (log2 per generation); higher = faster growth than wild type
Conditions: with Saccharomyces cerevisiae carrying the variant on a plasmid
Procedure: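 Pooled growth of yeast carrying single-residue variants of P. jirovecii dihydrofolate reductase (own DFR1 gene intact), two passages at 30 °C, three cultures, sequenced before and after. Codons with under 15 starting reads are left out; codons of one change are averaged.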

Variant | selection coefficient against synonymous wild-type codons (log2) (methotrexate 8.8 µM) | selection coefficient against synonymous wild-type codons (log2) (methotrexate 44 µM)
R82F | -0.613 ± 0.13 | -0.223 ± 0.062
R82A | -0.177 ± 0.039 | -0.262 ± 0.099
R82Q | -0.0862 ± 0.051 | -0.185 ± 0.083
R82Y | -0.583 ± 0.12 | -0.28 ± 0.021
R82N | -0.136 ± 0.032 | -0.179 ± 0.063
R82E | 0.137 ± 0.028 | 0.246 ± 0.21
R82M | -0.367 ± 0.054 | -0.152 ± 0.081
R82T | -0.152 ± 0.069 | -0.204 ± 0.063
R82K | -0.0705 ± 0.091 | -0.18 ± 0.074
R82L | -0.46 ± 0.11 | -0.204 ± 0.17
R82V | -0.349 ± 0.085 | -0.293 ± 0.12
R82G | -0.195 ± 0.045 | -0.273 ± 0.14
R82S | -0.0674 ± 0.03 | -0.0588 ± 0.068
R82C | -0.309 ± 0.083 | -0.245 ± 0.038
R82P | 0.341 ± 0.03 | 0.516 ± 0.064
R82W | -0.508 ± 0.071 | -0.256 ± 0.091
R82H | -0.224 ± 0.059 | -0.157 ± 0.033
R82D | 0.263 ± 0.065 | 0.35 ± 0.058
L88C | -0.233 ± 0.034 | -0.234 ± 0.19
L88K | -0.491 ± 0.049 | -0.232 ± 0.057
L88F | -0.313 ± 0.054 | -0.07 ± 0.12
L88Y | -0.51 ± 0.06 | -0.347 ± 0.065
L88R | -0.581 ± 0.12 | -0.172 ± 0.076

Variant | selection coefficient against synonymous wild-type codons (log2) (methotrexate 8.8 µM) | selection coefficient against synonymous wild-type codons (log2) (methotrexate 44 µM)
L88G | -0.479 ± 0.12 | -0.202 ± 0.051
L88H | -0.382 ± 0.075 | -0.282 ± 0.075
L88S | -0.452 ± 0.051 | -0.324 ± 0.065
L88A | -0.386 ± 0.097 | -0.235 ± 0.065
L88M | -0.384 ± 0.059 | -0.333 ± 0.058
L88W | -0.61 ± 0.1 | -0.194 ± 0.041
L88I | -0.364 ± 0.12 | -0.211 ± 0.12
L88V | -0.0702 ± 0.044 | -0.101 ± 0.18
L88E | -0.384 ± 0.14 | -0.259 ± 0.042
L88D | -0.495 ± 0.046 | -0.314 ± 0.047
L88Q | -0.478 ± 0.16 | -0.282 ± 0.065
L88T | -0.0528 ± 0.046 | -0.0676 ± 0.092
L88N | -0.315 ± 0.047 | -0.252 ± 0.044
L88P | -0.184 ± 0.05 | -0.169 ± 0.12
D87Y | -0.39 ± 0.055 | -0.0682 ± 0.38
D87N | -0.0858 ± 0.052 | -0.024 ± 0.034
D87I | -0.733 ± 0.034 | -0.143 ± 0.11
D87F | -0.454 ± 0.067 | -0.23 ± 0.059
D87T | -0.291 ± 0.04 | -0.0627 ± 0.43
D87V | -0.328 ± 0.076 | -0.196 ± 0.16
D87W | -0.579 ± 0.077 | -0.302 ± 0.034
D87R | -0.348 ± 0.088 | -0.214 ± 0.085
D87E | -0.0712 ± 0.046 | 0.0638 ± 0.12

Variant | selection coefficient against synonymous wild-type codons (log2) (methotrexate 8.8 µM) | selection coefficient against synonymous wild-type codons (log2) (methotrexate 44 µM)
D87M | -0.45 ± 0.016 | -0.244 ± 0.03
D87L | -0.493 ± 0.15 | -0.278 ± 0.068
D87S | -0.251 ± 0.043 | -0.291 ± 0.087
D87G | -0.259 ± 0.028 | -0.183 ± 0.093
D87K | -0.198 ± 0.1 | -0.0213 ± 0.44
D87A | -0.275 ± 0.041 | -0.194 ± 0.17
D87H | -0.171 ± 0.022 | -0.192 ± 0.16
D87C | -0.346 ± 0.032 | -0.181 ± 0.061
D87Q | -0.207 ± 0.068 | -0.142 ± 0.14
D87P | -0.199 ± 0.085 | -0.208 ± 0.14
Q83K | -0.0113 ± 0.04 | -0.0466 ± 0.056
Q83R | -0.0211 ± 0.039 | -0.0454 ± 0.1
Q83T | -0.232 ± 0.079 | -0.17 ± 0.078
Q83H | -0.122 ± 0.024 | -0.0714 ± 0.073
Q83G | -0.188 ± 0.058 | -0.228 ± 0.13
Q83C | -0.233 ± 0.13 | -0.286 ± 0.033
Q83W | -0.627 ± 0.11 | -0.268 ± 0.069
Q83A | -0.177 ± 0.022 | -0.142 ± 0.11
Q83N | -0.244 ± 0.029 | -0.0773 ± 0.019
Q83F | -0.357 ± 0.053 | -0.0744 ± 0.042
Q83V | -0.377 ± 0.084 | -0.192 ± 0.12
Q83M | -0.384 ± 0.085 | -0.376 ± 0.045
Q83D | 0.178 ± 0.032 | 0.206 ± 0.23

Variant | selection coefficient against synonymous wild-type codons (log2) (methotrexate 8.8 µM) | selection coefficient against synonymous wild-type codons (log2) (methotrexate 44 µM)
Q83P | -0.551 ± 0.058 | -0.156 ± 0.15
Q83S | -0.129 ± 0.034 | -0.1 ± 0.28
Q83E | 0.0646 ± 0.012 | -0.082 ± 0.13
Q83L | -0.494 ± 0.11 | -0.212 ± 0.11
Q83I | -0.5 ± 0.066 | -0.0684 ± 0.075
G90T | -0.139 ± 0.066 | -0.138 ± 0.042
G90I | -0.319 ± 0.071 | -0.206 ± 0.16
G90K | -0.0476 ± 0.043 | -0.145 ± 0.12
G90M | -0.245 ± 0.072 | -0.23 ± 0.14
G90Y | -0.215 ± 0.026 | -0.173 ± 0.22
G90D | 0.0971 ± 0.04 | 0.151 ± 0.04
G90A | -0.0254 ± 0.017 | 0.00965 ± 0.15
G90L | -0.354 ± 0.12 | -0.173 ± 0.17
G90R | -0.177 ± 0.097 | -0.114 ± 0.14
G90H | -0.0601 ± 0.012 | -0.0543 ± 0.053
G90F | -0.249 ± 0.03 | -0.253 ± 0.081
G90Q | -0.0268 ± 0.024 | -0.0101 ± 0.045
G90V | -0.187 ± 0.069 | -0.0794 ± 0.15
G90N | -0.0583 ± 0.02 | -0.0575 ± 0.077
G90P | 0.0626 ± 0.036 | 0.104 ± 0.071
G90C | -0.168 ± 0.059 | -0.256 ± 0.095
G90S | -0.0972 ± 0.055 | -0.124 ± 0.1
G90E | 0.0998 ± 0.0053 | 0.158 ± 0.0046

Variant | selection coefficient against synonymous wild-type codons (log2) (methotrexate 8.8 µM) | selection coefficient against synonymous wild-type codons (log2) (methotrexate 44 µM)
V85S | 0.224 ± 0.029 | 0.258 ± 0.058
V85C | 0.0841 ± 0.021 | 0.136 ± 0.042
V85W | -0.211 ± 0.015 | -0.185 ± 0.13
V85E | 0.127 ± 0.03 | 0.18 ± 0.076
V85H | 0.228 ± 0.025 | 0.313 ± 0.064
V85K | 0.279 ± 0.061 | 0.399 ± 0.047
V85R | 0.14 ± 0.044 | 0.221 ± 0.06
V85T | 0.153 ± 0.034 | 0.191 ± 0.07
V85L | -0.197 ± 0.061 | -0.149 ± 0.14
V85D | 0.114 ± 0.05 | 0.152 ± 0.017
V85I | -0.0161 ± 0.12 | -0.0158 ± 0.056
V85G | 0.0263 ± 0.035 | -0.038 ± 0.081
V85N | 0.201 ± 0.018 | 0.298 ± 0.12
V85P | -0.003 ± 0.1 | 0.0622 ± 0.16
V85Q | 0.122 ± 0.026 | 0.205 ± 0.019
V85A | 0.0723 ± 0.027 | 0.054 ± 0.12
V85M | -0.0553 ± 0.0094 | -0.0328 ± 0.05
V85F | -0.034 ± 0.031 | -0.0752 ± 0.14
G91D | 0.0933 ± 0.059 | 0.162 ± 0.083
G91E | 0.162 ± 0.035 | 0.237 ± 0.041
G91A | 0.0344 ± 0.057 | 0.0408 ± 0.13
G91Q | 0.175 ± 0.049 | 0.287 ± 0.053
G91S | -0.0295 ± 0.054 | -0.0113 ± 0.088
